Test results: the RNAGym collection of RNA variant scans (doi:10.1093/nar/gkz1192)
Read counts are not given, so values of variants with three or more changes are uncertain.

B1: CPEB3 Ribozyme (parent)
chain: UAACAGGGGGCCACAGCAGAAGCGUUCACGUCGCAGCCCCUGUCAGAUUCUGGUGAAUCUGCGAAUUCUGCUGUAUAUCUC

Variants of: B1
Assay: self-cleavage, relative activity (ratio to wild type); higher = more cleavage; in vitro, sequencing
Procedure, shortened: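 Relative activity was defined as the cleaved/total read fraction for a variant divided by the same fraction for the unmutated ribozyme. CPEB3 self-cleaving ribozyme libraries were made by rounds of error-prone PCR, barcoded, and transcribed in vitro with T7 RNA polymerase for 5 hours at 37°C, and cleavage ran through transcription plus a 15 min DNase I step before EDTA. Illumina sequencing of template-switched reverse transcripts gave the reads, and DNA sequencing mapped the barcodes. Averages come from three batches, using variants with at least 5 reads.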

Variant | self-cleavage
A3G A13U A18U U31A U60C U78C | 0.2
A3G A13U A20U U41C | 0.51
A3G A13U A21G U49C U51C U54C | 0.54
A3G A13U U26A | 0.8
A3G A13U U31A A45G | 0.54
A3G A13U U41C G55A U72C | 0.94
A3G A13U U51A A57U | 0.52
A3G A13U U67C | 0.33
A3G A15C C23U A28G G61U U80C | 0.43
A3G A15C U49G | 1.02
A3G A15G A18U U48C U51C A64G U78C | 0
A3G A15G A20U A28G A47G C68A U76C | 0.14
A3G A15G A45C U54A U58A U69A A77G | 0.39
A3G A15G A45G | 0.59
A3G A15G G19U U51A G61A | 0.08
A3G A15G G36C U58C U67G | 0.12
A3G A15G U25C | 0.1
A3G A15G U31A U58A | 0.51
A3G A15G U41G A45G | 0.6
A3G A15G U43C A47G C59U U69G U72C | 0.15
A3G A15G U48C U54A | 0.5
A3G A15G U48C U54A A64C | 0.43
A3G A15G U51C U67A U72A | 0.24
A3G A15G U54C U74C | 0.77

Variant | self-cleavage
A3G A15U A18G | 0.51
A3G A15U A18G A45U | 0.17
A3G A15U A28U U41A U58C U69A A77U | 0.08
A3G A15U A45U A47G A75G | 0.34
A3G A15U A65C U66C C71A | 0.18
A3G A15U G16A C59A A65G | 0.22
A3G A15U U49C U67C | 0.06
A3G A15U U54A | 0.85
A3G A15U U58A U76C | 0.24
A3G A15U U69A | 0.11
A3G A18C U25A U60C U72C G73A A77G | 0.28
A3G A18C U60C U72C U74C | 0.41
A3G A18G A20G U31A G36C A57C U60C | 0.05
A3G A18G A47U | 0.54
A3G A18G G30U U54C | 0.06
A3G A18G U31A U41A U43A A45C | 0.11
A3G A18G U31A U41C A65G A77U | 0.19
A3G A18G U48C G55U U60C U76A | 0.3
A3G A18G U66A U69A U78C | 0.18
A3G A18U A20U A35U U41A A64G U80G | 0.27
A3G A18U A21G A47G U54A U60A A65U | 0.12
A3G A18U A35G A56G U58C | 0.34
A3G A18U A35U | 0.48
A3G A18U A45U | 0.33

Variant | self-cleavage
A3G A18U C37U U43A | 0.43
A3G A18U G30U U72C U78A | 0.09
A3G A18U G36A C40A | 0.28
A3G A18U U49C U69C | 0.03
A3G A18U U54C | 0.75
A3G A18U U69C U78C | 0.5
A3G A20G A28G U60A U66C | 0.17
A3G A20G A35U C40U A65G | 0.39
A3G A20G A47U U51C U54C | 0.17
A3G A20G G24A A28G U31C G36A U69C | 0.06
A3G A20G G24C U26A U49A A57G G63A | 0.05
A3G A20G G33A | 0.07
A3G A20G U26C A47G U58C | 0.59
A3G A20G U41A G42A | 0.06
A3G A20G U49C U54C A64G G73A | 0.53
A3G A20G U51A | 1.03
A3G A20G U69C | 0.62
A3G A20U A45U A57U G73C | 0.29
A3G A20U A64U | 0.67
A3G A20U G36U | 0.36
A3G A20U G46U U67C | 0.19
A3G A20U U26C G42A U43A | 0.1
A3G A20U U31C A56G A64G U72A | 0.1
A3G A21C G30C | 0.5

Variant | self-cleavage
A3G A21G A35G U41A | 0.72
A3G A21G A35G U80C | 1.03
A3G A21G A64G | 0.6
A3G A21G A77G | 0.85
A3G A21G C32U A56G U72C | 0.49
A3G A21G C40U U49C U67A U72C | 0.04
A3G A21G G61U C62G | 0.13
A3G A21G U25C | 0.57
A3G A21G U26C U43A U54C U69C U80C | 0.02
A3G A21G U41A A45U U60C A64G | 0.12
A3G A21G U48A U69C | 0.07
A3G A21G U58C U60A A64U | 0.16
A3G A21U A28G | 0.17
A3G A21U A28U | 0.62
A3G A21U U31C C62U U72C | 0.07
A3G A28G A77U | 0.67
A3G A28G G30U U31C G52A U66C U76C | 0.11
A3G A28G U31C C38G | 0.14
A3G A28G U43C C44U U78A | 0.57
A3G A28G U58A | 0.09
A3G A28G U80C | 0.98
A3G A28U A45G U78C | 0.51
A3G A28U C39U A47C U58C U67C U72A | 0.06
A3G A28U G46C A57G | 0.09

Variant | self-cleavage
A3G A28U U31C A35U U76A U78C | 0.76
A3G A28U U74C A77G | 1.17
A3G A35C U66C U76C | 0.48
A3G A35G A64U | 1.12
A3G A35G G55U U66C | 1.09
A3G A35G U54C U67A | 1.16
A3G A35G U66C | 1.17
A3G A35U A64G U80C | 0.48
A3G A35U C39U C40U A47G U60A U80C | 0.14
A3G A35U G46A U49C | 0.11
A3G A35U G46A U51A A56U U67C G70A | 0.05
A3G A35U G46C | 0.34
A3G A35U U49C C68A | 0.06
A3G A35U U69C U78C | 0.09
A3G A35U U69G | 0.4
A3G A45C U54C U58C U72A | 0.23
A3G A45G A75U | 1.03
A3G A45G U49C A57G U69G | 0.14
A3G A45U A57G U60C | 0.14
A3G A47G U49C U67C G73C A75C | 0.23
A3G A47G U66C | 0.43
A3G A47U U72C | 0.24
A3G A56G A75G | 0.42
A3G A56G U67C | 0.39

Variant | self-cleavage
A3G A56G U74C U80C | 1.06
A3G A56U A64G | 0.54
A3G A56U A64U U69A A77G | 0.26
A3G A56U U60A U74A | 0.47
A3G A57G A65G U67A U69A U72C | 0.46
A3G A57G A65G U80C | 0.23
A3G A57G U67C | 0.43
A3G A57G U74C | 1.14
A3G A64G A65G | 0.36
A3G A64G U66C | 0.44
A3G A65G U76C | 0.52
A3G C4U A5G G8A U25C C34U U69A | 0.1
A3G C4U A20G G33A A57G C81U | 0.13
A3G C4U A28U C44U U54C | 0.6
A3G C4U C38A A57G U66C U78C U80C | 0.08
A3G C4U U49A U66A U69C | 0.48
A3G C11A U31C A64G A75G C81U | 0.13
A3G C11G C14G A20G U66C | 0.09
A3G C11G C32U C39A G46C A47G A77G | 0.04
A3G C11G U26A U58A U60A U72A | 0.07
A3G C11G U49C | 0.14
A3G C11U C32A U41C G63U | 0.07
A3G C11U U26C U49C A57G | 0.21
A3G C12A A45G U80C | 0.86

Variant | self-cleavage
A3G C12A C38G G42A | 0.24
A3G C12U A28G G55A U69C U78C | 0.23
A3G C12U U25G U51G U54C A57G | 0.34
A3G C12U U54C U60A U80C | 0.48
A3G C12U U69A | 0.96
A3G C14G U41A U43A | 0.13
A3G C14U U43A U67C U72C | 0.31
A3G C17A A35U U60A U67C | 0.07
A3G C17G A18G A64G A65G | 0
A3G C17U C40A A64G U72G | 0.19
A3G C17U C40U A45G | 0.24
A3G C17U U25G G55U A65U | 0.07
A3G C23A A35G A64G U67C U78A | 0.07
A3G C23U A35U U43C U67C C68A U80C | 0.15
A3G C23U C29U U43A U67C U72C U80C | 0.1
A3G C27A A45U A64G | 0.09
A3G C27A G36A A65G | 0.26
A3G C27A U76A | 0.1
A3G C27U U80C | 0.61
A3G C34G U51A | 0.79
A3G C34U U43A U66C | 0.71
A3G C37U U78C | 0.67
A3G C38A A45G U60C C62G U66C | 0.16
